According to patent US12122821B2, “Regulation of glucose metabolism using anti-CGRP antibodies” (H. LUNDBECK A/S, priority 2013, dated 2024):
Entries after “also recorded” stand apart in the source; their conditions may differ.

What was measured:
[1] = test system: Zucker diabetic fatty (ZDF) rat; conditions: ZDF rats
Experimental: Each pancreas was divided into 2 parts (longitudinal cut). One piece was fixed in 10% formalin solution for histopathological processing. The other piece of pancreas was flash frozen and kept at −80° C. for determination of insulin and proinsulin levels.
Each pancreas sample was fixed in 4% formalin during 24-48 hours maximum; the volume of formalin was 5-10 times higher than the sample volume to assure appropriate fixation. After 48 h, the samples were placed in 70% ethanol.

HFD rats = assay: 2-step hyperinsulinemic-euglycemic clamp in HFD rats (Example 2); assay type: in vivo, rat; conditions: vs HFD vehicle
Experimental: Six-week HFD fed rats were treated for 2 weeks with Ab14, and a 2-step hyperinsulinemic euglycemic clamp was performed to assess insulin sensitivity. A physiological dose of insulin was used during the first step and a pharmacological dose of insulin was used during the second step to assess the effects of […] insulin sensitivity, respectively, under these two conditions.
Body weight and food consumption were measured 3 times per week until 10 days of treatment. HOMA-IR was measured on day 10 and 15. A 2-step clamp (5 mU/kg/min and then 15 mU/kg/min insulin) was performed on day 15 or 16. Glucose Turnover (GTO) was assessed using ^3H-glucose tracer infusion during the clamp procedure.
On day 15 or 16, the 2-step hyperinsulinemic-euglycemic clamp was performed using ^3H-glucose as a tracer (except in the normal chow group), and 5 mU/kg/min insulin infusion from 02:00 pm (T0) to 04:00 pm (T+2 h), followed by 15 mU/kg/min insulin infusion from 04:00 pm to 05:30 pm (t+3.5 h). A glucose solution was infused in parallel and the infusion rate was adjusted to reach the steady state (100±10 mg/dL). Blood glucose was measured from the tip of the tail using glucometers every 10 minutes. Blood was collected (10 μL) regularly from the tip of the tail during the steady states of each step.
The following parameters were assessed: Glucose infusion rate (in all groups); Whole body glucose utilization rate (except in the normal chow group); Hepatic glucose production rate (except in the normal chow group); Whole body glycogen and glycolytic rates (except in the normal chow group).

Normal rats = assay: Blood glucose, plasma insulin and HOMA-IR before clamp in normal rats (Example 1); assay type: in vivo, rat; conditions: 42 h after Ab14 100 mg/kg i.v., 18 h after metformin 500 mg/kg p.o., vs vehicle
Experimental: The antibody used in this example consisted of the light and heavy polypeptide chains of SEQ ID NOs 132 and 134.
Blood glucose (BG) was measured between 07:30 and 08:00 (just before the light off) am from the tip of the tail with glucometer and a blood collection (on EDTA) was performed just after to measure plasma insulin. The table below describes the conditions:
Plasma samples were kept at −80° C. until insulin measurement (using ELISA method).
Vehicle and Ab14 were administered by i.v. route 48 h before the T0 of clamp procedure (at 02:00 pm two days before the clamp).
The rats were fasted 6 hours before the start of the clamp (at ˜8 h, just after the blood collection).

[2] = Ab14 60 mg/kg/wk., Met. 200 mg/kg/day
[3] = 5 mU/kg/min insulin, Ab14 30 mg/kg, ns
[4] = 15 mU/kg/min insulin, Ab14 30 mg/kg
[5] = 15 mU/kg/min insulin, Ab14 100 mg/kg

B1: Ab14: humanized anti-CGRP antibody consisting of the light and heavy polypeptide chains of SEQ ID NOs 132 and 134 (protein)
light: QVLTQSPSSLSASVGDRVTINCQASQNVYNNNYLAWYQQKPGKVPKQLIYSTSTLASGVPSRFSGSGSGTDFTLTISSLQPEDVATYYCLGSYDCSRGDCFVFGGGTKVEIKRTVAAPSVFIFPPSDEQLKSGTASVVCLLNNFYPREAKVQWKVDNALQSGNSQESVTEQDSKDSTYSLSSTLTLSKADYEKHKVYACEVTHQGLSSPVTKSFNRGEC
heavy: EVQLVESGGGLVQPGGSLRLSCAVSGIGLSSYYMQWVRQAPGKGLEWVGVIGSDGKTYYATWAKGRFTISRDNSKTTVYLQMNSLRAEDTAVYFCTRGDIWGQGTLVTVSSASTKGPSVFPLAPSSKSTSGGTAALGCLVKDYFPEPVTVSWNSGALTSGVHTFPAVLQSSGLYSLSSVVTVPSSSLGTQTYICNVNHKPSNTKVDARV[here human IgG1 Fc with changes without letters]
[1]; AB14 60 mg/kg, metformin, or combined, vs vehicle ZDF
  vacuolization and islet fibrosis severity: trend towards a decrease
[1]; [2]
  Arteries, medial/intimal hypertrophy, severity 0, incidence: 6
  Arteries, medial/intimal hypertrophy, severity 1, incidence: 3
  Brown pigment-laden, severity 1, incidence: 7
  Brown pigment-laden, severity 2, incidence: 2
  Eosinophilic granulocyte infiltration, severity 0, incidence: 8
  Eosinophilic granulocyte infiltration, severity 1, incidence: 1
  Exocrine cell vacuolation, severity 0, incidence: 8
  Exocrine cell vacuolation, severity 1, incidence: 1
  Fat tissue: Fat tissue necrosis, group mean score: 0
  Interstitial fibroplasia/fibrosis, severity 0, incidence: 8
  Interstitial fibroplasia/fibrosis, severity 1, incidence: 1
  Interstitial hemorrhage, severity 0, incidence: 3
  Interstitial hemorrhage, severity 1, incidence: 4
  Interstitial hemorrhage, severity 2, incidence: 2
  Islet Cell Vacuolation, severity 1, incidence: 6
  Islet Cell Vacuolation, severity 2, incidence: 3
  Islet Fibrosis, severity 1, incidence: 4
  Islet Fibrosis, severity 2, incidence: 3
  Islet Fibrosis, severity 3, incidence: 2
  Islet cell anisocytosis/anisokaryosis, severity 0, incidence: 5
  Islet cell anisocytosis/anisokaryosis, severity 1, incidence: 4
  Islet cell mitosis, severity 0, incidence: 7
  Islet cell mitosis, severity 1, incidence: 2
  Islet cell single cell necrosis, severity 0, incidence: 5
  Islet cell single cell necrosis, severity 1, incidence: 4
  Islet granulocytic infiltration, severity 0, incidence: 5
  Islet granulocytic infiltration, severity 1, incidence: 4
  Islet hemorrhage, severity 0, incidence: 7
  Islet hemorrhage, severity 1, incidence: 2
  Large/Giant Islets, severity 1, incidence: 4
  Large/Giant Islets, severity 2, incidence: 3
  Large/Giant Islets, severity 3, incidence: 2
  Lymph node: Brown pigment-laden macrophages, group mean score: 0
  Lymph node: Eosinophilic granulocyte infiltration, group mean score: 0.5
  Lymph node: Erythrophagocytosis—sinusoidal, group mean score: 1
  Lymph node: Pink protein rich sinusoidal lymph, group mean score: 0
  Lymph node: Sinusoidal hemorrhage, group mean score: 0
  Lymph node: Sinusoidal mast cells, group mean score: 0
  Mononuclear cell infiltration, severity 1, incidence: 9
  Pancreas: Arteries, medial/intimal hypertrophy, group mean score: 0
  Pancreas: Brown pigment-laden macrophages, group mean score: 1
  Pancreas: Eosinophilic granulocyte infiltration, group mean score: 0
  Pancreas: Exocrine cell vacuolation, group mean score: 0
  Pancreas: Interstitial fibroplasia/fibrosis, group mean score: 0
  Pancreas: Interstitial hemorrhage, group mean score: 1
  Pancreas: Islet cell anisocytosis/anisokaryosis, group mean score: 0.5
  Pancreas: Islet cell mitosis, group mean score: 0
  Pancreas: Islet cell single cell necrosis, group mean score: 0.5
  Pancreas: Islet cell vacuolation, group mean score: 1
  Pancreas: Islet fibrosis, group mean score: 2
  Pancreas: Islet granulocytic infiltration, group mean score: 0
  Pancreas: Islet hemorrhage, group mean score: 0
  Pancreas: Large/giant islet(s), group mean score: 1.5
  Pancreas: Mononuclear cell infiltration, group mean score: 1
  Pancreas: Pancreatic ductule hyperplasia, group mean score: 0
  Pancreatic ductule hyperplasia, severity 0, incidence: 9
HFD rats; 5 mU/kg/min insulin, Ab14 10 mg/kg, ns
  increase of mean GIR, first step: 26%
HFD rats; [3]
  increase of glucose turn over (GTO), first step: 17%
  increase of mean GIR, first step: 37%
HFD rats; 5 mU/kg/min insulin, Ab14 100 mg/kg, ns
  increase of mean GIR, first step: 29%
HFD rats; 5 mU/kg/min insulin, Ab14 treated groups (10, 30, 100 mg/kg), metformin 200 mg/kg/day
  GIR (plateau) during the first clamp step: Increased GIR; also recorded: slightly higher
HFD rats; 15 mU/kg/min insulin, Ab14 10 mg/kg
  increase of mean GIR, second step: 19%
HFD rats; 15 mU/kg/min insulin, Ab14 10 mg/kg, ns
  decrease of HGP, second step: 78%
HFD rats; [4]
  HGP, second step: completely inhibited
  increase of mean GIR, second step: 36%
HFD rats; [5]
  HGP, second step: completely inhibited
  increase of mean GIR, second step: 28%
Normal rats
  blood glucose in fed conditions: did not affect; also recorded: not affected
Normal rats; fed, not significant
  insulin resistance index HOMA-IR: slightly decreased; also recorded: decreased in a similar manner
